According to the supplement of paper PMC8183993:
Several values for one entry are separate records, joined by “and”; a condition that tells them apart may be missing. Equal values may be shown once. Where a name gives a salt, the structure may show the parent alone. ± gives the standard deviation of the averaged measurements. Over roughly 3,100 compounds, “mean cytoplasmic OPP incorporation (global translation) relative to DMSO” has its median near 100; the lowest 2% begin near 56. The list shows a part of the results.

test system: U2OS; assay: mean cytoplasmic OPP incorporation (global translation) relative to DMSO (% of DMSO); higher = more protein synthesis; conditions: 10 µM; 24 h
Procedure: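 Primary image-based screen in U2OS cells: compounds at 10 uM for 24 h, then a 1 h o-propargyl-puromycin (OPP) pulse, click labelling, and high-throughput microscopy. Mean cytoplasmic OPP intensity and nuclei count were normalised to DMSO wells within each plate (DMSO = 100) and averaged over triplicate plates.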

Row | SMILES | mean cytoplasmic OPP incorporation
1 | C=CCNc1ncnc2ccc(Br)cc12 | 105
2 | OCC(CO)N[C@H]1C[C@](O)(CO)[C@@H](O)[C@H](O)[C@H]1O [Voglibose] | 98
3 | CCCCC(=O)N(Cc1ccc(-c2ccccc2-c2nnn[nH]2)cc1)[C@H](C(=O)O)C(C)C [Valsartan (Diovan)] | 99.6
4 | CC(=O)[C@H]1[C@H](C#N)C[C@H]2[C@@H]3CC=C4C[C@@H](O)CC[C@]4(C)[C@H]3CC[C@@]21C [Pregnenolone-16(alpha)-carbonitrile] | 98.2
5 | OC(CCN1CCCCC1)(c1ccccc1)c1ccccc1 [Pridinol methanesulfonate salt] | 110
6 | COc1cc(Nc2ncc3c(n2)-c2ccc(Cl)cc2C(c2c(F)cccc2OC)=NC3)ccc1C(=O)O [MLN8237 (Alisertib)] | 100
7 | CCc1ccc(/C=C2/SC(=S)NC2=O)cc1 | 103
8 | Cc1ccc(Nc2nccc(N(C)c3ccc4c(C)n(C)nc4c3)n2)cc1S(N)(=O)=O [Pazopanib HCl] | 116
9 | Cc1ccc(Nc2nccc(N(C)c3ccc4c(C)n(C)nc4c3)n2)cc1S(N)(=O)=O [Pazopanib] | 113
10 | CC(=Nc1ccccc1N)c1c(C)cc(=O)n(O)c1O | 95.7
11 | CCN(CC)CCNC(=O)c1cc(Br)c(N)cc1OC [Bromopride] | 94
12 | O=c1cc(N2CCOCC2)oc2c(-c3ccccc3)cccc12 | 96.7 and 91.7
13 | CN1c2ccccc2C(=O)N2CCc3c([nH]c4ccccc34)C21 (stereo in doubt) [Evodiamine (Isoevodiamine)] | 94
14 | Nc1cc(C(F)(F)F)c(-c2cc(N3CCOCC3)nc(N3CCOCC3)n2)cn1 | 73.6
15 | Cc1c(C(=O)Nc2ccc(N3C[C@@H](C)O[C@@H](C)C3)nc2)cccc1-c1ccc(OC(F)(F)F)cc1 [LDE225 (NVP-LDE225, Erismodegib)] | 104
16 | Cc1ccc(Sc2cncc3sc(C(N)=O)cc23)cc1 | 100
17 | CC(C)NNC(=O)c1ccncc1 [Iproniazide phosphate] | 92
18 | N[C@H](C(=O)O)c1ccc(C(=O)O)c(O)c1 [(S)-4-Carboxy-3-hydroxyphenylglycine] | 107
19 | O=C(O)c1cc(=O)c2ccccc2[nH]1 [Kynurenic acid] | 97.6
20 | Cc1cnc(NC(=O)Nc2cc(Br)c(C)cc2OC[C@@H]2CNCCO2)cn1 | 45.6
21 | O=C(Nc1ccccc1)N1CCN(c2nc(-c3ccccc3)ns2)CC1 | 110

Row | SMILES | mean cytoplasmic OPP incorporation
22 | CC(C)SC(=N)N [S-Isopropylisothiourea hydrobromide] | 102
23 | CC1(COc2ccc(CC3SC(=O)NC3=O)cc2)CCCCC1 (stereo unspecified) [Ciglitazone] | 99.8 ± 3.3
24 | CN(C)CCc1c[nH]c2ccc(CS(=O)(=O)N3CCCC3)cc12 [Almotriptan malate (Axert)] | 99.7
25 | Cn1nc(C(C)(C)C)cc1C(=O)N[C@@H](Cc1cccc(Cl)c1)C(=O)NCC#N [Cathepsin Inhibitor 1] | 99.9
26 | CN(c1ncccc1CNc1nc(Nc2ccc3c(c2)CC(=O)N3)ncc1C(F)(F)F)S(C)(=O)=O | 62.8 and 60
27 | CCCCCCCCOc1ccccc1C(=O)Nc1ccc(C(=O)OCC[N+](C)(CC)CC)cc1 [Otilonium Bromide] | 110
28 | CN1CCCN(C(=O)c2cccc(-c3ccc(/C=C4/C(=O)Nc5ccc(Cl)cc54)o3)c2)CC1 | 55.4
29 | CN1CCN2c3ccccc3Cc3ccccc3C2C1 (stereo unspecified) [Mianserine hydrochloride] | 103
30 | CN1CCN2c3ccccc3Cc3ccccc3C2C1 (stereo unspecified) [Mianserin hydrochloride] | 96.9
31 | N[C@@H](Cc1ccc(O)c(O)c1)C(=O)O [Levodopa] | 98.9
32 | CCS(=O)(=O)N(C)[C@H]1c2cc(C#N)ccc2OC(C)(C)[C@@H]1O (racemic) [Chromanol 293B] | 96.1
33 | O=C(O)CCC(=O)c1ccc(-c2ccccc2)cc1 [Fenbufen] | 104
34 | O=C1c2c(O)ccc(O)c2C(=O)c2c(NCCNCCO)ccc(NCCNCCO)c21 [Mitoxantrone dihydrochloride] | 20.9
35 | CCOC(=O)C1=C(C)NC(C)=C(C(=O)OC)C1c1cccc(Cl)c1Cl (stereo unspecified) [Felodipine] | 103
36 | Cc1nc2sccn2c(=O)c1CCN1CCC(=C(c2ccc(F)cc2)c2ccc(F)cc2)CC1 [Ritanserin] | 99.7
37 | C[C@H](CCC(=O)O)[C@H]1CC[C@H]2[C@@H]3C(=O)C[C@@H]4CC(=O)CC[C@]4(C)[C@H]3CC(=O)[C@]12C [Dehydrocholic acid] | 103
38 | Cc1oc(S(=O)(=O)N2CCCCC2)cc1NC(=O)Nc1ccccc1 | 102
39 | C[N+](C)(C)CCOC(N)=O [Carbachol] | 98.4
40 | CC(C)(C)NC[C@H](O)COc1cccc2c1CCCC2=O [(-) -Levobunolol hydrochloride] | 110
41 | CC(C)c1cc(C(C)C)c(CC(=O)NS(=O)(=O)Oc2c(C(C)C)cccc2C(C)C)c(C(C)C)c1 [Avasimibe (CI-1011)] | 101
42 | COC(=O)/C=C/C(=O)OC [Dimethyl Fumarate] | 101

Row | SMILES | mean cytoplasmic OPP incorporation
43 | Nc1ncn(C2OC(CO)C(O)C2O)c(=O)n1 (stereo unspecified) [Azacytidine-5] | 99.4
44 | CCN1C(=O)C=CC1=O [N-Ethylmaleimide] | 103 ± 6.4
45 | O=C(NC(Cc1cc(=O)[nH]c2ccccc12)C(=O)O)c1ccc(Cl)cc1 (stereo unspecified) [Rebamipide] | 107
46 | CC(NCCc1ccc(O)cc1)C(O)c1ccc(O)cc1 (stereo unspecified) [Ritodrine hydrochloride] | 105
47 | C[N+](C)(CCOc1ccccc1)Cc1ccccc1.O=C([O-])c1cc2ccccc2cc1O [Bephenium hydroxynaphthoate] | 99
48 | C[C@H](Nc1ncnc2nc[nH]c12)c1cc2cccc(Cl)c2c(=O)n1-c1ccccc1 [Duvelisib (IPI-145, INK1197)] | 82.9
49 | C[C@H](Nc1ncnc2nc[nH]c12)c1cc2cccc(Cl)c2c(=O)n1-c1ccccc1 | 86.4
50 | NC1CCN(c2c(F)cc3c(=O)c(C(=O)O)cn(C4CC4)c3c2Cl)C1 (stereo unspecified) [Clinafloxacin] | 95.8
51 | CCC1(C)CC(=O)NC1=O (stereo unspecified) [Ethosuximide] | 102
52 | CC(C)(O)CC(=O)NCCn1ccc2ncnc(Nc3ccc(Oc4cccc(C(F)(F)F)c4)c(Cl)c3)c21 | 110.5 ± 0.47
53 | CCCNC(C)(C)COC(=O)c1ccccc1 [Meprylcaine hydrochloride] | 110
54 | COc1cc2nc(N3CCCN(C)CC3)nc(NC3CCN(Cc4ccccc4)CC3)c2cc1OC | 91.1
55 | O=S(=O)(c1cccc2cnccc12)N1CCCNCC1 [Fasudil HCl (HA-1077)] | 98.2
56 | O=S(=O)(c1cccc2cnccc12)N1CCCNCC1 [Fasudil hydrochloride] | 95.8
57 | CC(C)c1cnn2c(NCc3ccccc3)cc(NCCCCCCN)nc12 | 115
58 | CCc1nn(CCCN2CCN(c3cccc(Cl)c3)CC2)c(=O)n1CCOc1ccccc1 [Nefazodone hydrochloride] | 117
59 | CCc1nn(CCCN2CCN(c3cccc(Cl)c3)CC2)c(=O)n1CCOc1ccccc1 [Nefazodone HCl] | 106
60 | CCOC(=O)CC(=O)N1CCSC1COc1ccccc1OC (stereo unspecified) [Moguisteine] | 93.7
61 | CC(=O)Oc1ccc(C(c2ccc(OC(C)=O)cc2)c2ccccn2)cc1 [Bisacodyl] | 93.5
62 | Cc1ccc(C(=O)c2cc(/C=C/C(=O)NO)n(C)c2)cc1 | 99.3
63 | CCCCS(=N)(=O)CCC(N)C(=O)O (stereo unspecified) [Buthionine sulfoximine] | 121

Row | SMILES | mean cytoplasmic OPP incorporation
64 | CCC(C)(C)C(=O)O[C@H]1C[C@@H](C)C=C2C=C[C@H](C)[C@H](CC[C@@H]3C[C@@H](O)CC(=O)O3)[C@H]21 [Simvastatin] | 108 ± 11
65 | CCNC1(C(N)=O)CCN(c2ncnc3c2nc(-c2ccccc2Cl)n3-c2ccc(Cl)cc2)CC1 | 114
66 | CCCc1nn(C)c2c(=O)[nH]c(-c3cc(S(=O)(=O)N4CCN(C)CC4)ccc3OCC)nc12 [Sildenafil] | 100
67 | CN(C[C@@H]1COCCO1)S(=O)(=O)Nc1ccc2ccc3ncc(-c4cnn(C)c4)cc3c(=O)c2c1 | 96.2 ± 3.8
68 | N#CC[C@H](C1CCCC1)n1cc(-c2ncnc3[nH]ccc23)cn1 | 83.53 ± 0.64
69 | Clc1ccc(C(c2ccccc2Cl)C(Cl)Cl)cc1 (stereo unspecified) [Mitotane] | 114
70 | O=C1O[C@H]([C@@H](O)CO)C(O)=C1O [Ascorbic acid] | 112 ± 8.9
71 | Cc1cccc(C)c1OCC(=O)N[C@@H](Cc1ccccc1)[C@@H](O)C[C@H](Cc1ccccc1)NC(=O)[C@H](C(C)C)N1CCCNC1=O [Lopinavir (ABT-378)] | 113
72 | c1ccc(-c2nn3c(c2-c2ccnc4cc(OCCN5CCOCC5)ccc24)CCC3)nc1 | 106
73 | O=C(O)Cn1nnc(-c2cc(N3CCC(Oc4cc(F)ccc4Br)CC3)no2)n1 | 97.1
74 | O=C(c1ccc(F)cc1)C1CCN(CCn2c(=S)[nH]c3ccccc3c2=O)CC1 [Altanserin hydrochloride] | 96.6
75 | O=C(O)c1ccccc1Nc1cccc(C(F)(F)F)c1 [Flufenamic acid] | 101.6 ± 0.53
76 | CC[N+](C)(CC)CCC[n+]1c(-c2ccccc2)c2cc(N)ccc2c2ccc(N)cc21 [Propidium iodide] | 96.5
77 | Nc1ccc(C(=O)O)c(O)c1 [Sodium 4-Aminosalicylate] | 100
78 | Nc1ccc(C(=O)O)c(O)c1 [4-aminosalicylic acid] | 109
79 | c1ccc2sc(N3CCN(Cc4ccc5c(c4)OCO5)CC3)nc2c1 [2-[1-(4-Piperonyl)piperazinyl]benzothiazole] | 105
80 | O=C1Nc2ccc(Cl)cc2[C@@](C#CC2CC2)(C(F)(F)F)O1 [Efavirenz] | 90
81 | N#Cc1ccc(NC(=O)Nc2ccccc2Br)c2n[nH]nc12 | 104
